According to the supplement of paper PMC4604168 (melanoma cell lines):
This is one part of the list. Single values are uncertain, as repeats are few or missing.

tested on: SkMel5; test: cell count relative to DMSO control; melanoma cells; higher = more viable cells; settings: library dose: low library concentration; 72 h
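Also: cell number obtained by counting DAPI-stained nuclei in high-throughput microscope images with image analysis software, screen run in 1,536-well plates.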

Question: How did the cell count turn out when O=C(/C=C/c1cccnc1)NCCCCC1CCN(C(=O)c2ccccc2)CC1 + CCN(CC)CCCCNc1ncc2cc(-c3cc(OC)cc(OC)c3)c(NC(=O)NC(C)(C)C)nc2n1 [PD173074] (first compound 0.01 µM, partner dose 0.1 µM) was run?
Answer: Its cell count is 87.7%.

Question: For CC1(C)CCC(c2ccc(Cl)cc2)=C(CN2CCN(c3ccc(C(=O)NS(=O)(=O)c4ccc(N[C@H](CCN5CCOCC5)CSc5ccccc5)c(S(=O)(=O)C(F)(F)F)c4)cc3)CC2)C1 + O=C(Nc1cccc(Cl)c1)Nc1ncc(CCNc2ncnc3ccsc23)s1 [SNS314] (first compound 0.4 µM, partner dose 0.0008 µM), which cell count is on record?
Answer: The cell count was 68.9%.

Question: With Cc1ccc(Nc2nccc(N(C)c3ccc4c(C)n(C)nc4c3)n2)cc1S(N)(=O)=O [Pazopanib] + CC(C)CCN1c2nc(Nc3cc(F)c(O)c(F)c3)ncc2N(C)C(=O)C1C [BID1870] (first compound 0.4 µM, partner dose 0.2 µM) as the compound, how does the cell count read?
Answer: The cell count was 88.9%.

Question: Which cell count does the source give for CC1(C)CCC(c2ccc(Cl)cc2)=C(CN2CCN(c3ccc(C(=O)NS(=O)(=O)c4ccc(N[C@H](CCN5CCOCC5)CSc5ccccc5)c(S(=O)(=O)C(F)(F)F)c4)cc3)CC2)C1 + COc1ccc2c(c1)CCC1C2CCC2(C)C(NCCCCCCN3C(=O)C=CC3=O)CCC12 [U73122] (first compound 0.4 µM, partner dose 0.4 µM) here?
Answer: The cell count was 70.9%.

Question: Cc1ccc(Nc2nccc(N(C)c3ccc4c(C)n(C)nc4c3)n2)cc1S(N)(=O)=O [Pazopanib] + O=C(O)c1ccc(-c2c[nH]c3ncc(-c4ccccc4)cc23)cc1C1CCCC1 [GSK650394] (first compound 0.4 µM, partner dose 0.16 µM) was tested. Which cell count did it give?
Answer: Its cell count is 92.7%.

Question: O=C(/C=C/c1cccnc1)NCCCCC1CCN(C(=O)c2ccccc2)CC1 + NCC(=O)Nc1ccc(-n2nc(C(F)(F)F)cc2-c2ccc3c(ccc4ccccc43)c2)cc1 [OSU03012] (first compound 0.01 µM, partner dose 1 µM) was tested. Which cell count did it give?
Answer: Its cell count is 97.2%.

Question: For Cc1ccc(Nc2nccc(N(C)c3ccc4c(C)n(C)nc4c3)n2)cc1S(N)(=O)=O [Pazopanib] + C=CCn1c(=O)c2cnc(Nc3ccc(N4CCN(C)CC4)cc3)nc2n1-c1cccc(C(C)(C)O)n1 [MK1775] (first compound 0.4 µM, partner dose 0.02 µM), which cell count is on record?
Answer: Its cell count is 104%.

Question: How did the cell count turn out when Cc1ccc(Nc2nccc(N(C)c3ccc4c(C)n(C)nc4c3)n2)cc1S(N)(=O)=O [Pazopanib] + COC(=O)c1sccc1S(=O)(=O)Nc1ccc(Nc2ccccc2)cc1OC [GSK0660] (first compound 0.4 µM, partner dose 1 µM) was run?
Answer: Its cell count is 98.2%.
